Our source for the self-cleavage values is the RNAGym collection of RNA variant scans (doi:10.7554/elife.90254).

Read counts are not given, so values of variants with three or more changes are uncertain.

Sequences and labels used below:
B1: OR4K15 (parent)
chain: GUUAACGGUCAUAGGCCAUGGAAACUAGGAGCACCAUUUCGCUGCCAGUGAAGAAAUGAACAAAGAAAAUCUGGGCCAGGCAGGCAUCAAAAGAAAUAGUCUUGCGCUCAACCAGAAAGUCUGUAAUCAUUUUAAGGGUA

The data set covers variants of B1. As to the kind of experiment: self-cleavage, relative activity (ratio to wild type); higher = more cleavage; in vitro, sequencing; the parent is a self-cleaving ribozyme.
For the variant GUUAACGGUCAUAGGCCAUGGAAACUAGGGGCACCAUUUCGCUGCCAGUGAAGAAAUGAACAUAGAAAAUCUGGGCCAGGCAGGCAUCAAAGGAAAUAGUCUUGCGCUCAACCAGAAAGUCUGUAAUCAUUUUAAGGGUA [A30G A63U A92G], the self-cleavage stood at 1.25.

As for GUUAACGGUCAUAGGCCAUGGAAACUAGGGGCACCAUUUCGCUGCCAGUGAAGAAAUGAGCAAAGAAAAUCUGGGCCAGGCAGGCAUCAAAAGAAAUAGACCUGCGCUCAACCAGAAGGUCUGUAAUCAUUUUAAGGGUA [A30G A60G U100A U102C A118G], the self-cleavage is 1.46.

As for GUUAACGGUCAUAGGCCAUGGAAACUAGGGGCACCAUUUCGCUGCCAGUGAAGAAAUGAACAGAGAAAAUCUGGGCCAGGCAGGCAUCAAAAGAAAUAGUCUUGCGCUCAACCAGACAGUCUGUAAUCAUUUUAAGGGUA [A30G A63G A117C], the self-cleavage came out at 0.78.

For the variant GUUAACGGUCAUAGGCCAUGGAAACUAGGGGCACCAUUUCGCUGCCAGUGAAGAAAUGAACAGAGAAAAUCUGGGCCAGGCAGGCAUCAAAAGAAAUAGUCUCGCGCUCAACCAGAAAGUCUGUAAUCAUUUUAAGGGUA [A30G A63G U103C], the self-cleavage was found to be 0.7.

As for GUUAACGGUCAUAGGCCAUGGAAACUAGGGGCACCAUUUCGCUGCCAGUGAAGAAAUGAACAAGGAAAAUCUGGGCCAGGCAGGCAUCAAAAGAAAUAGUCCUGCGCUCAACCAGAAAGUCUGUAACCAUUUUAAGGGUA [A30G A64G U102C U127C], the self-cleavage was 1.05.

Take GUUAACGGUCAUAGGCCAUGGAAACUAGGGGCACCAUUUCGCUGCCAGUGAAGAGAUGAACAAGGAAAAUCUGGGCCAGGCAGGCAUCAAAAGAAAUAGUCUUGCGCUCAACCAGAAAGUCUGUAAUCAUUUUAGGGGUA [A30G A55G A64G A135G]: the self-cleavage was found to be 1.44.

In the case of GUUAACGGUCAUAGGCCAUGGAAACUAGGGGCACCAUUUCGCUGCCAGUGAAGAAAUGAACAAAGAGAAUCUGGGCCAGGCGGGCAUCAAAAGAAAUAGUCUUGCGCUCAACCAGAAAGUCUGUAACCAUUUUAAGGGUA [A30G A67G A82G U127C], the self-cleavage stood at 0.37.

As to GUUAACGGUCAUAGGCCAUGGAAACUAGGGGCACCAUUUCGCUGCCAGUGAGGAAAUGAACAAAGAAAAUCUGGGCCAGGCAGGCAUCAAAAGAAAUAGUCUCGCGCUCAACCAGAAAGUCUGUAAUCAUUUUAAGGGUA [A30G A52G U103C], the self-cleavage worked out at 0.3.

GUUAACGGUCAUAGGCCAUGGAAACUAGGGGCACCAUUUCGCUGCCAGUGAAGAAAUGGACAAAGAAAAUCUGGGCCAGGCAGGCAUCAAGAGAAAUAGUCUUGCGCUCGACCAGAAAGUCUGUAAUCAUUUUAAGGGUA [A30G A59G A91G A110G]: the self-cleavage is 0.14.

For GUUAACGGUCAUAGGCCAUGGAAACUAGGGGCACCAUUUCGCUGCCAGUGAAGAAAUGAACAAGGAAAAUCUGGGCCAGGCAGGCAUCAAAAGAAAUAGUCUUGCGCUCAACCAGGAAGUCUGUAGUCAUUUUAAGGGUA [A30G A64G A116G A126G], the self-cleavage came out at 0.38.

On to GUUAACGGUCAUAGGCCAUGGAAACUAGGGGCACCAUUUCGCUGCCAGUGAAGAAAUGGACAAAGAAAAUCUGGGCCAGGCAGGCAUCAAAAGAAAUAGUCUUGCGCUCAGCCAGAAAGUCUGUAAUCAUUUUAAGGGUA [A30G A59G A111G], for which the self-cleavage is 0.

GUUAACGGUCAUAGGCCAUGGAAACUAGGGGCACCAUUUCGCUGCCAGUGAAGAAAUGAACAGAGAAAAUCUGGGCCAGGCAGGCAUCAAAAGAAAUAGUCUUGCGCUCAACCGGAAAGUCUGUAAUCAUUUUAAGGGUA [A30G A63G A114G]: the self-cleavage stood at 0.5.

For GUUAACGGUCAUAGGCCAUGGAAACUAGGGGCACCAUUUCGCUGCCAGUGAAGAGAUGAACAAAGAAAAUCUGGGCCAGGCAGGCAUCAAAAGAAAUAGUCUUGCGCUCAACCAGAGAGUCUGUAAUCAUUUUAAGGGCA [A30G A55G A117G U139C], the self-cleavage was 1.46.

As for GUUAACGGUCAUAGGCCAUGGAAACUAGGGGCACCAUUUCGCUGCCAGUGAAGAAAUGAACAAAGAAGAUCUGGGCCAGGCAGGCAUCAAAAGAAAUAGUCUUGCGCUCAACCAGGAAGUCUGUAAUCAUUUUAAGGGUA [A30G A68G A116G], the self-cleavage turned out to be 0.99.

Consider GUUAACGGUCAUAGGCCAUGGAAACUAGGGGCACCAUUUCGCUGCCAGUGAAGAAAUGUACAAGGAAAAUCUGGGCCAGGCAGGCAUCAAAAGAAAUAGUCUUGCGCUCAACCAGAAAGUCUGUAAUCAUUUUAAGGGUA [A30G A59U A64G], for which the self-cleavage worked out at 1.46.

In the case of GUUAACGGUCAUAGGCCAUGGAAACUAGGGGCACCAUUUCGCUGCCAGUGAAGAAAUGUACAAAGAAAGUCUGGGCCAGGCAGGCAUCAAAAGAAAUAGUCUUGCGCUCAACCAGAAAGUCUGUAAUCAUUUUAAGGGUA [A30G A59U A69G], the self-cleavage was determined as 1.29.

On to GUUAACGGUCAUAGGCCAUGGAAACUAGGGGCACCAUUUCGCUGCCAGUGAAGAAAUGAACAAAGAAAGUCUGGGCCAGGCUGGCAUCAAAAGAAAUAGUCUUGCGCUCAACCAGAAAGUCUGUAAUCAUUUUAAGGGUA [A30G A69G A82U], for which the self-cleavage is 0.42.

For GUUAACGGUCAUAGGCCAUGGAAACUAGGGGCACCAUUUCGCUGCCAGUGAAGAAAUGAACAAAGAAGAUCUGGGCCAGGCAGGCAUCAAAAGAAAUAGUCUUGCGCUCAGCCAGGAAGUCUGUAAUCAUUUUAAGGGUA [A30G A68G A111G A116G], the self-cleavage was 0.02.

GUUAACGGUCAUAGGCCAUGGAAACUAGGGGCACCAUUUCGCUGCCAGUGAAGAAAUGAACAAAGAAAGUCUGGGCCAGGCGGGCAUCAAAAGAAAUAGUCUUGCGCUCGACCAGAAAGUCUGUAAUCAUUUUAAGGGCA [A30G A69G A82G A110G U139C]: the self-cleavage is 0.07.

GUUAACGGUCAUAGGCCAUGGAAACUAGGGGCACCAUUUCGCUGCCAGUGAAGAAAUGAACAAAGAAGAUCUGGGCCAGGCAGGCAUCGAGAGAAAUAGUCUUGCGCUCAACCAGAAAGUCUGUAAUCAUUUUAAGGGUA [A30G A68G A89G A91G]: the self-cleavage turned out to be 0.62.

Regarding GUUAACGGUCAUAGGCCAUGGAAACUAGGGGCACCAUUUCGCUGCCAGUGAAGAAAUGGACAAAGAAAAUCUGGGCCAGGCAGGCAUCAAAAGAAAUAGUCUUGCGCUCAACCAGAAAGUCUGUAAUCAUUUUAAGGGAA [A30G A59G U139A], the self-cleavage was 1.63.
